From PubChem BioAssay AID1030 (National Center for Advancing Translational Sciences (NCATS), 2008)
Hit rate of the full screen: of about 220,000 compounds, about 16,000 (7.3%) were called active. This list was built around the results that the source calls inconclusive (neither active nor inactive); the mix of calls is not that of the screen. Calls come from the whole dose curve; as a rule, active = well fitted inhibition curve with a large enough effect (not every such curve was filed as active); inconclusive = small, poorly fitted or top-dose-only effect, or another doubt; inactive = no such curve, though single readings can be large or run the other way. Potencies of inconclusive entries are left out as doubtful fits.

Each compound was assayed against Aldehyde dehydrogenase 1A1 (Homo sapiens) (UniProt P00352) (assay: qHTS Assay for Inhibitors of Aldehyde Dehydrogenase 1 (ALDH1A1)). Settings: Purified ALDH1A1, NADH fluorescence, propionaldehyde substrate; series mostly up to 75.3 µM.
UniProt P00352, sequence (P00352 whole entry, looked up): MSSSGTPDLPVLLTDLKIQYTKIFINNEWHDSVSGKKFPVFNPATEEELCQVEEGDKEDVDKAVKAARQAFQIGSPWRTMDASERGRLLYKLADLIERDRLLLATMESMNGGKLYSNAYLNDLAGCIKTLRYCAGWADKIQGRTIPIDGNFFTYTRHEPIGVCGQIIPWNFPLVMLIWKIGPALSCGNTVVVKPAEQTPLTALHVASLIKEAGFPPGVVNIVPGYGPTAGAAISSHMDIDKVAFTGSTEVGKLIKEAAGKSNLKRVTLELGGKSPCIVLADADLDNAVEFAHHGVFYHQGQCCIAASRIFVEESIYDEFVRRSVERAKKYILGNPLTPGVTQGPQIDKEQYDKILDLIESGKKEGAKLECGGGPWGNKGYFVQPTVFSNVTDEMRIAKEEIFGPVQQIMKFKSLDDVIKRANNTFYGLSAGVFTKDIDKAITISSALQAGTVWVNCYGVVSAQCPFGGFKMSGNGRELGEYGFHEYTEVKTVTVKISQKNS
Potency is the fitted concentration of half-maximal effect; tags give direction and shape of the fitted curve.

Compound	Potency
COc1ccc(-n2c(O)c(C(C)=NCCN3CCNCC3)c(=O)[nH]c2=O)cc1	inconclusive [inhibitor, single point]
CNC[C@H](O)c1ccc(OC(=O)C(C)(C)C)c(OC(=O)C(C)(C)C)c1	inactive
O=C(Nc1ccc(Br)cc1)c1cc(Br)cc(Br)c1O	inconclusive [inhibitor, single point]
O=NN(CCO)CCO	inconclusive [inhibitor, single point]
CC(C)CCCC(C)C1CCC2C3=CC[C@@H]4CC(O)CC[C@@]4(C)C3CC[C@]21C (stereo partly drawn)	inconclusive [inhibitor, single point]
COc1ccc(C(C)=O)cc1COc1ncnc2ccccc12	active: 1.78 µM
COc1ccc2ccc(O)c(CN3CC=C(c4ccccc4)CC3)c2c1	inconclusive [inhibitor, partial curve]
CC(CO)(CO)N=Cc1c(O)n(-c2cccc3ccccc23)c(=O)[nH]c1=O	inactive
COc1ccc(NC(=S)NC(NC(=O)CF)C(Cl)(Cl)Cl)cc1[N+](=O)[O-] (stereo not drawn)	inconclusive [inhibitor, single point]
CC1(C)CC(=O)C(C=NCCN2CCN(C(=O)Cc3ccccc3)CC2)=C(O)C1	inconclusive [inhibitor, single point]
CCOC(=O)Cn1c(=O)oc2cc(S(=O)(=O)NC3CCCc4ccccc43)ccc21 (stereo not drawn)	inconclusive [inhibitor, single point]
O=S(=O)(Cl)c1ccccc1	inconclusive [inhibitor, single point]
COc1c(CC=C(C)C)c2c(c3oc(=O)c(-c4ccc(O)cc4)c(O)c13)C=CC(C)(C)O2	inconclusive [inhibitor, single point]
c1csc(CN2CC3(CCNCC3)C2)n1	inactive
Oc1cc(Cl)cc(Cl)c1Cl	inconclusive [inhibitor, single point]
COC(=O)[C@@H]1[C@@H]2C[C@H]3c4[nH]c5cc(OC)ccc5c4CCN3C[C@@H]2C[C@H](OC(=O)/C=C\c2cc(OC)c(OC)c(OC)c2)[C@H]1OC	inconclusive [inhibitor, single point]
Cn1c(=O)oc2cc(S(=O)(=O)NC3CCCCCCC3)ccc21	inconclusive [inhibitor, partial curve, poor fit]
O=C1CN=C(c2ccccc2)c2cc(Br)ccc2N1Cc1cc(=O)n2ccccc2n1	inconclusive [inhibitor, single point]
